Assay results: PubChem BioAssay AID1159614 (National Center for Advancing Translational Sciences (NCATS), 2016)
The whole screen tested about 45,000 compounds, of which about 65 (0.1%) were called active. The call rests on the fitted dose curve; in most records, active means well fitted activation curve with a large enough effect; inconclusive means small, poorly fitted or top-dose-only effect; inactive means no such curve, though single readings can be large or run the other way. The list shows a part of the results.

target: Galactocerebrosidase (Homo sapiens) (UniProt P54803); assay: A Novel Cell-Based Assay to Identify Small Molecules for B -Galactocerebrosidase; conditions: 145M-Twi-hGALC-G270D cells, HMU-beta-Gal fluorescence, 48 h; series mostly up to 57.5 µM; activation: at the top concentration; further: 0% is about no effect; nearly all actives have a fitted effect of over 65% in size
Method in brief: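 qHTS, 1536-well; 145M-Twi-hGALC-G270D cells (WT line also made) in DMEM/F12 + 10% FBS; compound incubation on live cells; HMU-β-gal 0.1 mM final, pH 5.2, NaTC; carbonate stop; fluorescence increase = enhanced residual activity.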

UniProt P54803, sequence (P54803 whole entry, looked up): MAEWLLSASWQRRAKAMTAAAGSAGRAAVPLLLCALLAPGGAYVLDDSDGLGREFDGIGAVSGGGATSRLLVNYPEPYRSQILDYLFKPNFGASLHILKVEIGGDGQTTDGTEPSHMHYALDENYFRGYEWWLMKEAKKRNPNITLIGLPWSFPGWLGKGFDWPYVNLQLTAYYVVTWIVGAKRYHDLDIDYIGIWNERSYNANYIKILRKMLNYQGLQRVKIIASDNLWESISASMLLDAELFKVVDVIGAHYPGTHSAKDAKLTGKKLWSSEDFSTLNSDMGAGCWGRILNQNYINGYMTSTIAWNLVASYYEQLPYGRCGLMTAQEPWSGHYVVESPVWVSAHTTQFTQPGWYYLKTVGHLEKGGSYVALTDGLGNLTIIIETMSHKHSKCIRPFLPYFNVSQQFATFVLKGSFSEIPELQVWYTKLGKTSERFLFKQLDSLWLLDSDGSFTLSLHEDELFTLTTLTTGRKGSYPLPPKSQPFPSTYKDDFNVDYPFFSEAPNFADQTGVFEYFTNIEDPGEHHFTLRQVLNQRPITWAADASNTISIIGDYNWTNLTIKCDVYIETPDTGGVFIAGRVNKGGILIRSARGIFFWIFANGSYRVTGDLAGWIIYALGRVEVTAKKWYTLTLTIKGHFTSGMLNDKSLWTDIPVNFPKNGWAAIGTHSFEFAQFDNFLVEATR

`COc1ccc(C(=O)Nc2ccccc2)cc1S(=O)(=O)Nc1ccc(Br)cc1` was tested. Which “activation” value did it give?
The value was inactive: -9.99%.

`Cc1cc2ccccc2n1CCNC(=O)c1ccccc1F` was tested. Which “activation” value did it give?
The value was inactive: -14.2%.

With `O=c1c2sc3ccccc3c2n(Cc2ccc(F)cc2)c(=O)n1Cc1ccco1` as the compound, how does the “activation” value read?
Its value is inactive: -11.4%.

For `c1ccc2sc(SN3CCOCC3)nc2c1`, which “activation” value is on record?
The value was inactive: -9.63%.

How did the “activation” value turn out when `O=C(NCC(c1ccc2c(c1)OCO2)N1CCN(c2ccccc2)CC1)C(=O)Nc1ccccc1` (stereo not drawn) was run?
Its value is inactive: -11.3%.

With `CC(C)c1ccc(S(=O)(=O)c2nnn3c2nc(NCc2cccs2)c2sccc23)cc1` as the compound, how does the “activation” value read?
The value was inactive: -26.9%.

With `CC(=O)Nc1ccc(OC(=O)c2ccccc2OC(C)=O)cc1` as the compound, how does the “activation” value read?
The value was inactive: -21.7%.

For `Fc1ccc(Nc2nc(-c3cccc(Cl)c3)c3c(n2)-c2ccccc2OC3)cc1`, which “activation” value is on record?
Its value is inactive: -5.24%.

`O=C(Nc1ccc2nc(SCC(=O)N3CCCc4ccccc43)sc2c1)c1ccccc1F` was tested. Which “activation” value did it give?
Its value is inactive: -4.89%.

With `CCc1ccc(C2=C(C)C(N3CCC(C(=O)Nc4ccc(F)cc4)CC3)=NS2(=O)=O)cc1` as the compound, how does the “activation” value read?
The value was inactive: -12.7%.

How did the “activation” value turn out when `O=C(Nc1cccc(C(=O)N2CCN(c3ccccc3)CC2)c1)c1nsc2ccccc12` was run?
Its value is inactive: -7.69%.

Which “activation” value does the source give for `CC(=O)[C@@]1(O)CC[C@H]2[C@@H]3C[C@H](C)C4=CC(=O)C=C[C@]4(C)[C@@]3(F)[C@@H](O)C[C@@]21C` here?
Its value is inactive: -10.9%.

`Cc1c(C(=O)Nc2ccccc2)sc2nc(-c3cc4ccccc4oc3=O)[nH]c(=O)c12` was tested. Which “activation” value did it give?
The value was inactive: -10.6%.

With `CCc1ccc2oc(C(=O)Nc3cc(Cl)ccc3OC)cc(=O)c2c1` as the compound, how does the “activation” value read?
The value was inactive: -10.7%.

With `CCOc1ccc(NC(=O)c2sc3nc4n(c(=O)c3c2C)CCCC4)cc1` as the compound, how does the “activation” value read?
The value was inactive: -12.5%.

With `Cc1cc(Cl)ccc1NC(=O)CS(=O)(=O)c1cccc2nsnc12` as the compound, how does the “activation” value read?
The value was inactive: 5.36%.

Which “activation” value does the source give for `CCOC(=O)C1CCN(c2nc3c(S(=O)(=O)c4ccc(CC)cc4)nnn3c3ccc(Cl)cc23)CC1` here?
The value was inactive: 0.564%.

Which “activation” value does the source give for `Cc1cccn2c(=O)c3cc(C(=O)NC(C)(C)C)n(C)c3nc12` here?
Its value is inactive: 0.863%.

For `CC(=O)c1ccc(NC(=O)C2CCCN(S(=O)(=O)c3ccc(Br)s3)C2)cc1` (stereo not drawn), which “activation” value is on record?
The value was inactive: -15.4%.

With `COC(=O)c1sc2cccc(F)c2c1S(=O)(=O)NC(C)c1ccccc1` (stereo not drawn) as the compound, how does the “activation” value read?
Its value is inactive: -13.6%.

`CCc1ccc(NCc2cc3ccc(OC)cc3n(CC(=O)Nc3ccccc3OC)c2=O)cc1` was tested. Which “activation” value did it give?
The value was inactive: 18.1%.

How did the “activation” value turn out when `CCOc1ccc(N(CC)C(=O)c2cc3c(s2)-c2ccc(Cl)cc2SC3)cc1` was run?
The value was inactive: -19.5%.

How did the “activation” value turn out when `Cc1ccn2c(Nc3ccc4c(c3)OCO4)c(-c3ccc(C)o3)nc2c1` was run?
Its value is inactive: -8.97%.

`Cc1ccc(C(=O)NCCSc2c[nH]c3ccccc23)cc1C` was tested. Which “activation” value did it give?
The value was inactive: -18.5%.

How did the “activation” value turn out when `Cc1cccc(NC(=O)c2ccc(F)c(S(=O)(=O)NCc3ccc4c(c3)OCO4)c2)c1` was run?
The value was inactive: 0.103%.

For `Cc1cc(C)cc(NC(=O)CSc2oc(-c3cccs3)nc2S(=O)(=O)c2ccc(Br)cc2)c1`, which “activation” value is on record?
The value was inactive: -7.03%.

For `CCOC(=O)C1CCN(C(=O)c2ccc3c(=O)n4nc(Nc5ccccc5)sc4nc3c2)CC1`, which “activation” value is on record?
The value was inactive: -3.14%.

Which “activation” value does the source give for `CCCN(CCC)C(=O)Cn1c(=O)n(-c2ccc(CC)cc2)c(=O)c2c3c(sc21)CCC3` here?
The value was inactive: -0.558%.

Which “activation” value does the source give for `COc1ccc(-c2c(C)c3ccc(O)c(CN4CCCCC4C)c3oc2=O)cc1OC` (stereo not drawn) here?
Its value is inactive: -16.9%.

With `CC(=O)NC(=O)c1ccccc1O` as the compound, how does the “activation” value read?
The value was inactive: -7.9%.

How did the “activation” value turn out when `COc1ccc(NC(=O)C2(S(=O)(=O)c3ccc(C)cc3)CC2)c(OC)c1` was run?
The value was inactive: -10.9%.

For `O=C(Nc1ccccc1F)C(c1ccccc1)N1Cc2ccccc2C1=O` (stereo not drawn), which “activation” value is on record?
Its value is inactive: -12.6%.

Which “activation” value does the source give for `CCCOC(=O)c1ccc(NC(=O)C2CC(=O)N(c3ccc(C)cc3)C2)cc1` (stereo not drawn) here?
The value was inactive: -20.2%.

How did the “activation” value turn out when `O=C(CSc1nccn1Cc1ccc(F)cc1)NC1CCCC1` was run?
Its value is inactive: -13.3%.

`CCOc1ccc(NC(c2ccc(Cl)cc2)c2nnc(-c3cccc(F)c3)o2)cc1` (stereo not drawn) was tested. Which “activation” value did it give?
The value was inactive: -12%.

Which “activation” value does the source give for `Cc1ccc(CN(C(=O)COc2cccc(Cl)c2)c2ccccn2)o1` here?
The value was inactive: 7.97%.

For `CCSc1ncc(Cl)c(C(=O)Nc2ccc(S(=O)(=O)N3CCCCC3CC)cc2)n1` (stereo not drawn), which “activation” value is on record?
The value was inactive: -13.2%.

Which “activation” value does the source give for `COc1cc(O)ccc1-c1nc2ccc(Br)cn2c1Nc1ccccc1C` here?
The value was inactive: -24.6%.

Which “activation” value does the source give for `CCC(=O)N1c2ccccc2CC1C(=O)NCCc1ccccc1OC` (stereo not drawn) here?
Its value is inactive: -3.66%.

For `Cc1ccc(C)c(-c2ccc(=O)n(C(C)C(=O)Nc3ccccc3C(F)(F)F)n2)c1` (stereo not drawn), which “activation” value is on record?
Its value is inactive: -7.44%.

For `CCCCNC(=O)CSc1nc(-c2ccc(OC)cc2)cc(C(F)(F)F)n1`, which “activation” value is on record?
Its value is inactive: -15.2%.

With `CN1CC(=O)N2[C@H](c3ccc4c(c3)OCO4)c3[nH]c4ccccc4c3C[C@@H]2C1=O` as the compound, how does the “activation” value read?
Its value is inactive: -16.9%.

With `CCc1ccc(-n2nc(C)c3c(C(=O)Nc4ccc(Cl)cc4)cc(C)nc32)cc1` as the compound, how does the “activation” value read?
Its value is inactive: 13.5%.

For `CCCOc1ccccc1C(=O)N1CCCCC1CCN1CCCCC1` (stereo not drawn), which “activation” value is on record?
Its value is inactive: -7.94%.

For `COC(=O)c1ccccc1NC(=O)CCn1c(=O)c2cccn2c2cccnc21`, which “activation” value is on record?
The value was inactive: 1.68%.

How did the “activation” value turn out when `Cc1noc(-c2ccc(N(C)Cc3ccccc3)c([N+](=O)[O-])c2)n1` was run?
Its value is inactive: -12%.

`Cc1ccc(OCC(=O)Nc2nnc(SCc3cc(=O)n4cc(C)ccc4n3)s2)cc1` was tested. Which “activation” value did it give?
The value was inactive: 1.87%.

`COc1ccc(C(=O)Nc2cc(-c3nc4ncccc4o3)ccc2C)cc1Br` was tested. Which “activation” value did it give?
The value was inactive: -9.49%.

Which “activation” value does the source give for `O=C(NC1CC(=O)N(c2cccc(F)c2)C1)c1ccc(S(=O)(=O)N2CCCCC2)cc1` (stereo not drawn) here?
Its value is inactive: -3.37%.

Which “activation” value does the source give for `COc1ccc(OC)c(-n2nnc(-c3nc(-c4ccc5c(c4)OCO5)no3)c2C)c1` here?
Its value is inactive: -16.6%.

With `COc1ccc(OCc2nc(-c3ccc(OC)c(OC)c3)no2)cc1` as the compound, how does the “activation” value read?
Its value is inactive: 1.21%.

For `CC(=O)Nc1ccc(C)cc1-c1nc2ccccc2n(Cc2cccc(Br)c2)c1=O`, which “activation” value is on record?
Its value is inactive: -12%.

Which “activation” value does the source give for `COc1cccc(NC(=O)CSc2nnc3[nH]c(=O)cc(-c4ccccc4)n23)c1` here?
Its value is inactive: -2.97%.

Which “activation” value does the source give for `CCOC(=O)C1CCCN(C(=O)c2ccc(C)c(NC(=O)c3nsc4ccccc34)c2)C1` (stereo not drawn) here?
The value was inactive: -22.3%.

With `CCCc1nc2nc(C)c(NS(=O)(=O)c3ccc(C)c(C)c3)c(=O)n2[nH]1` as the compound, how does the “activation” value read?
Its value is inactive: -15.8%.

`C1CCC(C(CC2CCCCN2)C2CCCCC2)CC1` (stereo not drawn) was tested. Which “activation” value did it give?
Its value is inactive: -39.5%.

For `COc1ccc(CCNc2oc(/C=C/c3ccc(OC)c(OC)c3)nc2C#N)cc1`, which “activation” value is on record?
Its value is inactive: -2.41%.

Which “activation” value does the source give for `CCc1ccc(NS(=O)(=O)c2cc(Br)cc3c2N(C(C)=O)CC3)cc1` here?
The value was inactive: -4.93%.

With `CC(=O)Nc1ccc(NC(=O)c2ccc3c(c2)CCN3S(=O)(=O)c2ccc(Cl)cc2)cc1` as the compound, how does the “activation” value read?
Its value is inactive: -20.6%.

`COc1cccc(-n2ccnc2SCC(=O)Nc2nc3ccc(C)cc3s2)c1` was tested. Which “activation” value did it give?
Its value is inactive: 3.45%.

For `CC(=O)Nc1c(C)nn(-c2ccccc2)c1N1CCC(C(=O)Nc2ccc(C)cc2Cl)CC1`, which “activation” value is on record?
Its value is inactive: 0.479%.

How did the “activation” value turn out when `CS(=O)(=O)c1ccc(-c2cn3ccccc3n2)cc1` was run?
The value was inactive: 8.42%.

`CCCCCCCCCCCCOCCOCCOCCOCCOCCOCCOCCOCCOCCO` was tested. Which “activation” value did it give?
The value was inactive: -13.9%.
